Assay results reported in patent US10299477B2 (priority 2015, dated 2019).

Experiments:
Assay type in all cases: in vivo
Botrytis cinerea = experiment: Test Example B: Gray mold on tomato; conditions: for Test B (control value class, gray mold on tomato): in vivo; for Test B control value (gray mold on tomato) / Test B (control value class): 250 ppm spray; for Test B control value (gray mold on tomato): preventive, control value class; for Test B (control value class): gray mold on tomato, Botrytis cinerea
Excerpt: [Test Example B] Gray Mold on Tomato
Seeds of a test plant (tomato variety: Oogata Fukuju) were planted followed by cultivating until three to five first leaves (true leaves) appeared.

[1] = system: Blumeria graminis f sp. hordei; experiment: Test Example D: Powdery mildew on barley; conditions: for Test D (control value class, powdery mildew on barley): in vivo; for Test D control value (powdery mildew on barley) / Test D (control value class): 250 ppm spray; for Test D control value (powdery mildew on barley): preventive, control value class; for Test D (control value class): powdery mildew on barley
Excerpt: [Test Example D] Powdery Mildew on Barley
After the sprayed dilutions were dried, conidia of Blumeria graminis f sp. hordei were inoculated to the plants by shaking off.

Plasmopara viticola = experiment: Test Example G: Downy mildew on vine; conditions: for Test G (control value class, downy mildew on vine): 250 ppm, sprayed 2.5 ml/pot before inoculation, evaluated 7-10 days after inoculation; for Test G control value (downy mildew on vine): 250 ppm spray (2.5 ml/pot), preventive, control value class; for Test G control value (downy mildew on vine) / Test G (control value class): 7-10 days after inoculation; for Test G (control value class): downy mildew on vine, Plasmopara viticola, 250 ppm spray
Excerpt: [Test Example G] Downy Mildew on Vine
Seeds of a test plant (grape variety: Neomuscat) were planted followed by cultivating until three to four first leaves appeared. […] After the sprayed dilutions were dried, a zoosporangia suspension (1-2×10^4 zoosporangia/ml) of Plasmopara viticola was inoculated to the plants by spraying.

Alternaia brassicicola = experiment: Test Example C: Alternaria sooty spot on cabbage; conditions: for Test C (control value class, Alternaria sooty spot on cabbage): in vivo; for Test C control value (Alternaria sooty spot on cabbage) / Test C (control value class): 250 ppm spray; for Test C control value (Alternaria sooty spot on cabbage): preventive, control value class; for Test C (control value class): Alternaria sooty spot on cabbage
Excerpt: [Test Example C] Alternaria Sooty Spot on Cabbage
Seeds of a test plant (cabbage variety: Shikidori) were planted followed by cultivating until the cotyledons extended.

Puccinia recondita = experiment: Test Example E: Brown rust on wheat; conditions: for Test E (control value class, brown rust on wheat): in vivo; for Test E control value (brown rust on wheat) / Test E (control value class): 250 ppm spray; for Test E control value (brown rust on wheat): preventive, control value class; for Test E (control value class): brown rust on wheat, Puccinia recondita
Excerpt: [Test Example E] Brown Rust on Wheat

Structure (SMILES)	Test B (control value class, gray mold on tomato) (Botrytis cinerea)	Test D (control value class, powdery mildew on barley) [1]	Test G (control value class, downy mildew on vine) (Plasmopara viticola)	Test C (control value class, Alternaria sooty spot on cabbage) (Alternaia brassicicola)	Test E (control value class, brown rust on wheat) (Puccinia recondita)	Test B control value (gray mold on tomato) (Botrytis cinerea)	Test D control value (powdery mildew on barley) [1]	Test G control value (downy mildew on vine) (Plasmopara viticola)	Test C control value (Alternaria sooty spot on cabbage) (Alternaia brassicicola)	Test E control value (brown rust on wheat) (Puccinia recondita)	other results
Cn1c(-c2c(F)cc(F)cc2F)c(-c2cc(F)c(F)cc2F)cc(Cl)c1=O [Compound 653]	H (H shows more than 50% of control values)	L (L shows 50% or less of control values)	L (L shows 50% or less of control values)	H (H shows more than 50% of control values)	H (H shows more than 50% of control values)						
CCn1c(-c2c(F)cccc2F)c(-c2cc(F)ccc2Cl)cc(Br)c1=O [Compound 361]						H (H shows more than 50% of control values)	L (L shows 50% or less of control values)	L (L shows 50% or less of control values)	L (L shows 50% or less of control values)	H (H shows more than 50% of control values)	
O=c1ccc(-c2cc(F)cc(F)c2Cl)c(-c2c(F)cc(F)cc2F)n1CC(F)F [Compound 607]	H (H shows more than 50% of control values)	H (H shows more than 50% of control values)	L (L shows 50% or less of control values)	H (H shows more than 50% of control values)	H (H shows more than 50% of control values)						
CCn1c(-c2c(F)cccc2F)c(-c2cc(Cl)ccc2Cl)cc(C)c1=O [Compound 470]											Test B (control value class) (Botrytis cinerea): H (H shows more than 50% of control values); Test D (control value class) [1]: H (H shows more than 50% of control values); Test G (control value class) (Plasmopara viticola): H (H shows more than 50% of control values); Test C (control value class) (Alternaia brassicicola): H (H shows more than 50% of control values); Test E (control value class) (Puccinia recondita): H (H shows more than 50% of control values)
CCn1c(-c2c(F)cccc2F)c(-c2ccc(F)cc2F)cc(Cl)c1=O [Compound 630]	H (H shows more than 50% of control values)	H (H shows more than 50% of control values)	H (H shows more than 50% of control values)	H (H shows more than 50% of control values)	H (H shows more than 50% of control values)						
CCn1c(-c2c(F)cc(OC)cc2F)c(-c2cc(F)cc(F)c2F)cc(Cl)c1=O [Compound 546]											Test B (control value class) (Botrytis cinerea): H (H shows more than 50% of control values); Test D (control value class) [1]: H (H shows more than 50% of control values); Test G (control value class) (Plasmopara viticola): L (L shows 50% or less of control values); Test C (control value class) (Alternaia brassicicola): H (H shows more than 50% of control values); Test E (control value class) (Puccinia recondita): H (H shows more than 50% of control values)
COCCOCOc1ccc(Cl)c(-c2ccc(=O)n(C)c2-c2c(F)cccc2F)c1 [Compound 331]						H (H shows more than 50% of control values)	H (H shows more than 50% of control values)	H (H shows more than 50% of control values)	L (L shows 50% or less of control values)	H (H shows more than 50% of control values)	
COCOc1ccc(Cl)c(-c2ccc(=O)n(C)c2-c2c(F)cccc2F)c1 [Compound 239]						H (H shows more than 50% of control values)	H (H shows more than 50% of control values)	H (H shows more than 50% of control values)	H (H shows more than 50% of control values)	H (H shows more than 50% of control values)	
Cc1cc(-c2cc(F)cc(F)c2Cl)c(-c2c(F)cc(F)cc2F)n(C)c1=O [Compound 694]	H (H shows more than 50% of control values)	H (H shows more than 50% of control values)	H (H shows more than 50% of control values)	H (H shows more than 50% of control values)	H (H shows more than 50% of control values)						
Cn1c(-c2c(F)cccc2F)c(-c2cccc(Cl)c2)ccc1=O [Compound 188]						H (H shows more than 50% of control values)	H (H shows more than 50% of control values)	H (H shows more than 50% of control values)	H (H shows more than 50% of control values)	H (H shows more than 50% of control values)	
CCn1c(-c2c(F)cc(F)cc2F)c(-c2ccccc2F)cc(Br)c1=O [Compound 532]											Test B (control value class) (Botrytis cinerea): H (H shows more than 50% of control values); Test D (control value class) [1]: H (H shows more than 50% of control values); Test G (control value class) (Plasmopara viticola): H (H shows more than 50% of control values); Test C (control value class) (Alternaia brassicicola): H (H shows more than 50% of control values); Test E (control value class) (Puccinia recondita): H (H shows more than 50% of control values)
COc1cc(F)c(-c2c(-c3ccccc3F)cc(Br)c(=O)n2C)c(F)c1 [Compound 572]	H (H shows more than 50% of control values)	H (H shows more than 50% of control values)	H (H shows more than 50% of control values)	H (H shows more than 50% of control values)	H (H shows more than 50% of control values)						
CCN1C(=O)CCC(c2cccc(C)c2)=C1c1c(F)cccc1F [Compound 207]						L (L shows 50% or less of control values)	H (H shows more than 50% of control values)	L (L shows 50% or less of control values)	H (H shows more than 50% of control values)	H (H shows more than 50% of control values)	
COc1cc(OC)c(Cl)c(-c2ccc(=O)n(CC(F)F)c2-c2c(F)cccc2F)c1 [Compound 337]						H (H shows more than 50% of control values)	H (H shows more than 50% of control values)	H (H shows more than 50% of control values)	H (H shows more than 50% of control values)	H (H shows more than 50% of control values)	
CCn1c(-c2c(F)cccc2F)c(-c2cc(Cl)ccc2F)ccc1=O [Compound 522]											Test B (control value class) (Botrytis cinerea): H (H shows more than 50% of control values); Test D (control value class) [1]: L (L shows 50% or less of control values); Test G (control value class) (Plasmopara viticola): L (L shows 50% or less of control values); Test C (control value class) (Alternaia brassicicola): H (H shows more than 50% of control values); Test E (control value class) (Puccinia recondita): L (L shows 50% or less of control values)
CCn1c(-c2c(F)cccc2F)c(-c2cc(OCCOC)ccc2Cl)ccc1=O [Compound 193]						H (H shows more than 50% of control values)	H (H shows more than 50% of control values)	H (H shows more than 50% of control values)	H (H shows more than 50% of control values)	H (H shows more than 50% of control values)	
CCn1c(-c2c(F)cccc2F)c(-c2ccc(OC)cc2Cl)cc(Cl)c1=O [Compound 736]	H (H shows more than 50% of control values)	H (H shows more than 50% of control values)	H (H shows more than 50% of control values)	H (H shows more than 50% of control values)	H (H shows more than 50% of control values)						
